From PubChem BioAssay AID588382 (National Center for Advancing Translational Sciences (NCATS), 2011)
Screen size: about 1,300 compounds; about 150 (12%) were called active. Another 30% or so got no clear call; they are omitted. Calls follow the shape of the dose curve; as a rule, active = well fitted cell-killing curve with a large enough effect; inconclusive = small, poorly fitted or top-dose-only effect, or effect the other way; inactive = flat fitted curve, though single readings scatter. The list shows a part of the results, in another mix than the full data.

assay: qHTS of small molecules that selectively kill Giardia lamblia: Hit Validation in HepG2 cytotox; details: cell viability; Potency: HepG2 cytotoxicity; series mostly up to 38.3 µM; activity change, negative = cytotoxicity: at the top concentration;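 also: compound exposure lasted overnight at 37 deg C; nearly all actives have a fitted effect of over 55% in size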;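 as to activity change, negative = cytotoxicity: viability measured as cellular ATP by ATPLite luminescence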
How it was run: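 Counterscreen cytotoxicity: ATPLite luminescence (15 min, room temperature) measured in HepG2 cells exposed overnight at 37 deg C to pin-transferred compound (23 nL) after overnight pre-incubation.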
% is scaled to controls: 0 for no effect and ±100 for the full control effect; potency is read from the fitted curve at half-maximal effect.

SMILES	activity change, negative = cytotoxicity	Potency
O=C(NCc1ccccc1CN1CCCC1)c1cccc(S(=O)(=O)N2CCCC2)c1	inactive: 2.58%	
COc1cc(Nc2ccc(C)cc2)c([N+](=O)[O-])nc1[N+](=O)[O-]	inactive: 14.5%	
O=C(Nc1ccc(Cc2ccncc2)cc1)c1ccc([N+](=O)[O-])o1		active: 6.56 µM
CCn1c(CCNC(=O)c2ccc(F)cc2)nc2ccccc21	inactive: -3.8%	
O=C(c1cccc(F)c1)N1CCN(c2ccc([N+](=O)[O-])c3cccnc23)CC1	inactive: -12.1%	
CC1CCCCC1NC(=O)COc1cccnc1[N+](=O)[O-] (stereo not drawn)	inactive: 1.19%	
COc1ccc(CN2C(=O)C(CC(C)C)Nc3ncnc(N4CCCCC4)c32)cc1 (stereo not drawn)	inactive: -2.29%	
Cc1ccc(C(=O)c2c3ccc([N+](=O)[O-])cc3[n+]([O-])n2CCC(N)=O)cc1	inactive: 19%	
CC1CCCCC1NC(=O)NC(=O)COC(=O)c1cncc(Br)c1 (stereo not drawn)	inactive: 1.04%	
COC(=O)[C@@]12CCCCN1[C@H](c1ccc(-c3ccc(C(C)=O)cc3)cc1)[C@@H]1C(=O)N(C)C(=O)[C@@H]12	inactive: 10.7%	
O=C(NCCc1ccccc1)c1ccc(CS(=O)(=O)c2ccc(Cl)cc2)o1	inactive: 0.864%	
COc1ccc(CNC(=O)COc2cccnc2[N+](=O)[O-])cc1	inactive: 15.6%	
Nc1ncnc2c1ncn2C1O[C@H](CO)[C@@H](O)[C@@H]1O (stereo partly drawn)	inactive: 12.7%	
CC1S/C(=C(\C#N)C(N)=O)N(c2ccc(F)cc2)C1=O (stereo not drawn)	inactive: -24.2%	
C#CCOCCOCCOCCNc1nc(N2CCN(C(=O)[C@H](CCC(=O)O)n3cc([C@@H](N)CC(N)=O)nn3)CC2)nc(N2CCN(C(=O)[C@H](CCC(=O)O)n3cc([C@@H](N)CC(N)=O)nn3)CC2)n1	inactive: 9%	
Cc1ccc(S(=O)(=O)Nc2ccc(C(OC(=O)c3ccccc3[N+](=O)[O-])(C(F)(F)F)C(F)(F)F)cc2)cc1	inactive: -2.37%	
CCCSc1nc2c(cnn2-c2ccc(C)c(C)c2)c(=O)[nH]1	inactive: 0.777%	
O=C1/C(=C/c2ccncc2)CCC/C1=C\c1ccncc1		active: 4.14 µM
Cc1c(N=Nc2ccc(N(C)C)cc2)c(=O)n(-c2ccccc2)n1C	inactive: 0.797%	
COc1ccc(NC(=O)c2ccc([N+](=O)[O-])o2)cc1		active: 3.69 µM
CC[C@]1(C(=O)OC)[C@H]2C(=O)N(C)C(=O)[C@H]2[C@H]2CN(C)C(=NC)N21	inactive: 10.4%	
Cc1ccc(Nc2nc(=O)c3cc([N+](=O)[O-])ccc3s2)cc1	inactive: 10.3%	
CCCCCCSc1ccc([C@H]2N[C@@](Cc3ccccc3)(C(=O)OC)[C@H]3C(=O)N(C)C(=O)[C@@H]23)cc1	inactive: -6.45%	
O=[N+]([O-])c1cncc([N+](=O)[O-])c1Nc1cccc(O)c1	inactive: 27.5%	

SMILES	activity change, negative = cytotoxicity	Potency
CCN(C(=O)C1CCN(S(=O)(=O)c2ccc3c(c2)oc(=O)n3C)CC1)c1cccc(C)c1	inactive: 4.95%	
COc1cc(C2C(C(=O)c3ccc(C)o3)=C(O)C(=O)N2c2cc(C)on2)ccc1OCc1ccccc1 (stereo not drawn)	inactive: 7.43%	
O=[N+]([O-])c1nn(-c2ccc3c(c2)OCCO3)n(O)c1=NC1CCCCC1	inactive: -2.04%	
COc1ccccc1NC(=O)COc1cccnc1[N+](=O)[O-]	inactive: 0.838%	
COc1ccc(OCC(=O)NNC(=O)C2CCN(c3ncnc4sc(C)c(C)c34)CC2)cc1	inactive: 13%	
Cc1c(Nc2nc3ccccc3n3cnnc23)cccc1[N+](=O)[O-]	inactive: 11.5%	
CCS(=O)(=O)Nc1cccc(C2=NN(S(=O)(=O)c3ccc(C)cc3)C(c3ccco3)C2)c1 (stereo not drawn)	inactive: -18.5%	
CSCCC(NS(=O)(=O)c1ccc2c(c1)OCCO2)C(=O)N(C)Cc1ccccc1F (stereo not drawn)	inactive: 1.53%	
COc1ccc2c(c1)C1OCCC1C(c1ccco1)N2 (stereo not drawn)		active: 10.4 µM
Cc1ccc(SCCNC(=O)c2ccccc2F)cc1	inactive: 12.2%	
COc1ccc2oc(C(=O)OC(C)C(=O)NCc3ccccc3)c(C)c2c1 (stereo not drawn)	inactive: 11.9%	
O=[n+]1c2c(n([O-])c3cc(Br)ccc31)CCCC2	inactive: 6.84%	
N#Cc1nc(-c2ccc(OCc3ccccc3)cc2)oc1N1CCC(C(N)=O)CC1	inactive: -9.71%	
O=C(Nc1ccc(N2CCN(C(=O)c3ccccc3)CC2)cc1)c1ccc([N+](=O)[O-])o1		active: 4.65 µM
CCc1ccc(S(=O)(=O)Nc2ccc(-c3ccc4nnc(C)n4n3)cc2)s1	inactive: 2.05%	
COc1ccc(OC)c(/C=C/c2ccc3ccccc3n2)c1	inactive: 6.55%	
CC1=NN(c2nc3ccccc3[nH]2)C(=O)/C1=C/N(C)C		active: 0.927 µM
Cc1ccc([N+](=O)[O-])c(C(=O)Nc2cccnc2Cl)c1	inactive: 23.5%	
Cc1c(C(=O)c2ccc(Cl)cc2[N+](=O)[O-])c2ccccn2c1CCC#N	inactive: 9.75%	
Cc1cc(Nc2ccccc2)c2c([N+](=O)[O-])ccc(C)c2n1	inactive: 24.3%	
CCCSc1ccc2nc(NC(=O)OC)[nH]c2c1	inactive: 4.95%	
CCOC(=O)/C=C/[C@H]1CCc2cccc(Cl)c2O1	inactive: 17.4%	
COc1ccc(Cc2noc(CN(C)Cc3ccc(-n4cccn4)cc3)n2)cc1OC	inactive: 3.89%	
COC(=O)N/N=C/c1ccc([N+](=O)[O-])s1	inactive: -20.9%	

SMILES	activity change, negative = cytotoxicity	Potency
Cc1cc(C)nc(N/N=C/c2ccc([N+](=O)[O-])o2)n1	inactive: -16.7%	
Cc1cc(C)c(-n2[nH]nnc2=S)c(C)c1	inactive: 3.16%	
CCN(Cc1ccncc1)C(=O)CC1C(=O)NCCN1Cc1ccc(F)c(F)c1 (stereo not drawn)	inactive: -1.32%	
CC(NC(=O)c1ccccc1F)c1nnc(SCC(=O)NC2CCCC2)n1C (stereo not drawn)	inactive: 10.3%	
C(=C\c1nc2ccccc2s1)/c1ccc2c(c1)OCO2		active: 2.07 µM
Cc1ccc(CSc2nnc(Cn3c(=O)sc4ccccc43)n2C)cc1	inactive: 11.3%	
COC(=O)[C@]1(C)N[C@H](CN(C)S(=O)(=O)c2ccc(-c3ccccc3)cc2)[C@@H]2C(=O)N(C)C(=O)[C@@H]21	inactive: 16.4%	
O=C(CNC(=O)Cc1ccccc1)N=Nc1c(O)[nH]c2ccc(Br)cc12	inactive: 5.1%	
Cn1cccc1C1CCCN1CC(=O)Nc1ccc(F)c(F)c1F (stereo not drawn)	inactive: 4.65%	
Cc1onc(-c2ccccc2Cl)c1C(=O)NNC(=O)c1ccc(F)cc1	inactive: 19.2%	
O=[N+]([O-])c1nn(-c2ccc3c(c2)OCCO3)n(O)c1=NCCC1=CCCCC1	inactive: 1.64%	
CC(C)CC(=O)NC(=S)NNC(=O)c1ccc([N+](=O)[O-])cc1	inactive: -5.24%	
COc1ccc(S(=O)(=O)Nc2c(O)c3ccccc3oc2=O)cc1	inactive: 15.8%	
O=c1[nH][nH]c(-c2ccccc2)c1C=Nc1ccc(OC(F)(F)F)cc1	inactive: 14.5%	
N=NC(=O)c1ccccc1Nc1c(O)[nH]c2ccccc12		active: 16.5 µM
CCC(C(=O)N1CCOCC1)n1nc(C)n2c(cc3cc(C)ccc32)c1=O (stereo not drawn)	inactive: 7.22%	
O=C(O)c1cccc(CN2C(=O)S/C(=C/c3ccccc3[N+](=O)[O-])C2=O)c1	inactive: 8.95%	
N=C1C(c2ccccc2)=C(O)CN1c1cccc(S(=O)(=O)N2CCOCC2)c1	inactive: 17.3%	
Cc1ccc(S(=O)(=O)N2[C@@H](c3ccccc3)C(C(=O)O)=CC[C@H]2c2cccc(Cl)c2)cc1	inactive: 6.16%	
C[C@]12c3[nH]c4ccc(Cl)cc4c3CCN1C(=O)[C@@H](CC(=O)NCCN1CCOCC1)C[C@@H]2C(=O)N1CCOCC1	inactive: 7.31%	
COc1cccc([C@@H]2CC=C(C(=O)O)[C@H](c3ccccc3F)N2S(=O)(=O)c2ccc(C)cc2)c1	inactive: 8.72%	
CC(C)(C)[C@H](N)C(=O)N[C@H]1CCC2C3CC=C4C[C@@H](O)CC[C@]4(C)C3CC[C@@]21C (stereo partly drawn)		active: 2.33 µM
COc1ccc(CN(C(=O)CSc2nnc(-c3ccc(OC)c(OC)c3)o2)c2ccc(F)cc2)cc1	inactive: 5.51%	
Cc1ccc(OCC(=O)N(Cc2cccc(Cl)c2)C2CCS(=O)(=O)C2)cc1C (stereo not drawn)	inactive: 0.826%	

SMILES	activity change, negative = cytotoxicity	Potency
Cn1cc([N+](=O)[O-])c(C(=O)Nc2sc3c(c2C#N)CCC3)n1		active: 2.33 µM
COc1ccc(CCNC(=O)C23CCC(C)(C(=O)C2=O)C3(C)C)cc1OC (stereo not drawn)	inactive: 7.19%	
COc1cc2c(cc1OC)-c1c(OC)c(OC)cc3ccnc(c13)C2=O	inactive: -4.96%	
CN(CCc1ccccc1)C(=O)c1cccc(NC(=O)Cc2cccc(NC(=O)C3CCN(C(=O)C4CCCC4)CC3)c2)c1	inactive: 12.8%	
CN(C(=O)c1cc([N+](=O)[O-])ccc1NCc1cccnc1)c1ccccc1	inactive: 14.7%	
O=C(Nc1ccc2oc(-c3cccnc3)nc2c1)c1ccc([N+](=O)[O-])o1		active: 13.1 µM
O=c1cc(-c2ccccc2)[nH]c2cc(Cl)ccc12	inactive: 12.5%	
Cc1cnc([N+](=O)[O-])n1CCOC(=O)NC(=O)c1ccc(C(F)(F)F)cc1	inactive: 16.2%	
COc1ccc(S(=O)(=O)N2CCCCC2)cc1NC(=O)c1ccc([N+](=O)[O-])o1		active: 3.29 µM
CCC1=C(OC(=O)N(CC)CC)N2C(=O)OC(=NCC(=O)OC)[C@]2(C)[C@H]2C1=CC[C@H]1C(=O)N(CC)C(=O)[C@H]12	inactive: -4.65%	
O=C(Nc1ccc(N2CCN(C(=O)c3ccc(Cl)cc3)CC2)cc1)c1ccc([N+](=O)[O-])o1		active: 3.29 µM
NC(=O)c1c(NC(=O)c2ccc([N+](=O)[O-])o2)sc2c1CCCC2		active: 11.7 µM
COc1cc(NC(=O)c2ccc([N+](=O)[O-])o2)ccc1NC(=O)c1cccs1		active: 14.7 µM
O=C(NCC(c1ccco1)N1CCCC1)c1ccc(S(=O)(=O)Nc2ccccc2Cl)cc1 (stereo not drawn)	inactive: -0.386%	
Cc1cccc(C)c1OCC(=O)N(Cc1cccs1)C1CCS(=O)(=O)C1 (stereo not drawn)	inactive: 3.77%	
CCn1c(=O)n(CC)c2cc(N)ccc21	inactive: 16.5%	
O=C(NCC1CCN(Cc2ccc(F)cc2)CC1)Nc1cc(F)ccc1F	inactive: 0.846%	
COc1ccc(C(=O)C(C)OC(=O)CNC(=O)C2CCCCC2)cc1 (stereo not drawn)	inactive: 22.2%	
CCOP(=O)(OCC)c1cccc(P(=O)(c2ccccc2)c2ccccc2)c1O	inactive: 18.3%	
Cc1cc(N/N=C/c2ccc([N+](=O)[O-])o2)nc2ccccc12	inactive: -6.07%	
COc1cc(/C=C2\SC(=O)N(Cc3ccc(F)cc3)C2=O)cc([N+](=O)[O-])c1O	inactive: -2.93%	
